Measurements: PubChem BioAssay AID588453 (National Center for Advancing Translational Sciences (NCATS), 2011)
The whole screen tested about 390,000 compounds, of which about 4,000 (1%) were called active. The shares of active, inactive and inconclusive entries below differ from those in the screen. Calls come from the whole dose curve; as a rule, active = well fitted inhibition curve with a large enough effect; inconclusive = small, poorly fitted or top-dose-only effect; inactive = no such curve, though single readings can be large or run the other way. Potencies of inconclusive entries are doubtful fits and often do not repeat.

biological target: Thioredoxin reductase 1, cytoplasmic (Rattus norvegicus) (UniProt O89049); assay: qHTS Assay for Inhibitors of Mammalian Selenoprotein Thioredoxin Reductase 1 (TrxR1): qHTS; settings: recombinant rTrxR1, NADPH fluorescence consumption, selenite substrate; series mostly up to 114 µM; activity change, negative = inhibition: at the top concentration; note: nearly all actives have a fitted effect of over 65% in size
UniProt O89049, sequence (O89049 whole entry, looked up): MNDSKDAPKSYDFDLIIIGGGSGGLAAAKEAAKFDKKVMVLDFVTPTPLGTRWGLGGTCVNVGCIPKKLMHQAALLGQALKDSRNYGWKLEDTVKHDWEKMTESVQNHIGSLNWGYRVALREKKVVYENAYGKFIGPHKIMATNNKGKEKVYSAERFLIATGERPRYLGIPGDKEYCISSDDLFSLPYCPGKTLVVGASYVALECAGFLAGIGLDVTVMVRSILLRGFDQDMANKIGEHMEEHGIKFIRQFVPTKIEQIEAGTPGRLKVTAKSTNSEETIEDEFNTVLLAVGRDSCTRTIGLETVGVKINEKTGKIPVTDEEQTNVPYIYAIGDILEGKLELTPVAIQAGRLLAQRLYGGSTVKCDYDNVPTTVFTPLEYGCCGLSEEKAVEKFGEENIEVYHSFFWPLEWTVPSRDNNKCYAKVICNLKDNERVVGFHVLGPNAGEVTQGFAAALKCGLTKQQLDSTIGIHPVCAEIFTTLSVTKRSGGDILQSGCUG
Method in brief: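 Rat TrxR1 (90 nM in the dispensed reagent) was pre-reduced with 400 uM NADPH for 5 min at room temperature, then incubated with compound for 15 min. After 400 uM selenite was added, NADPH fluorescence (Ex 340/Em 450 nm) was followed for 8 min.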
% is set by controls: 0 for no effect and ±100 for the full control effect; potency is the fitted concentration of half-maximal effect; tags give direction and shape of the fitted curve.

Compound | activity change, negative = inhibition | Potency
COc1ccc(-c2ccnc3cc(C(=O)O)nn23)cc1 | inactive: 1.04% [at 57.1 µM] | 
CCC(=O)Nc1cccc(C(=O)/C=C/c2cc(Br)ccc2OC)c1 |  | inconclusive: 44.7 µM [inhibitor, partial curve]
CCOc1ccc(S(=O)(=O)NCC(c2cccs2)S(=O)(=O)c2ccc(C)cc2)cc1 (stereo unspecified) |  | active: 0.891 µM
Cc1oc(-c2ccc(Cl)cc2)cc1-c1nn2c(-c3ccoc3C)nnc2s1 |  | inconclusive: 70.8 µM [inhibitor, partial curve]
CCOC(=O)c1cc(C#N)c(SC(C(=O)N2CCCCC2)c2ccccc2)nc1C (stereo unspecified) |  | inconclusive: 100 µM [inhibitor, partial curve, poor fit]
O=C(CN1c2cccc3cccc(c23)S1(=O)=O)NCCc1ccccc1 |  | inconclusive: 50.1 µM [inhibitor, partial curve]
COc1ccc(N(CC(=O)NCCSCc2ccco2)S(=O)(=O)c2ccccc2)cc1Cl |  | inconclusive: 31.6 µM [inhibitor, partial curve]
O=S(=O)(O)c1cc2onnc2c2ccccc12 |  | inconclusive: 0.562 µM [inhibitor, partial curve, poor fit]
O=C(NCc1ccccc1)c1cccc(NC(=O)c2ccco2)c1 | inactive: -9.49% | 
O=[N+]([O-])c1ccc(NC(=S)NCc2ccc(F)cc2)cc1 |  | inconclusive: 79.4 µM [inhibitor, partial curve]
O=C(COC(=O)c1ccc([N+](=O)[O-])s1)Nc1ncc(C(F)(F)F)cc1Cl |  | inconclusive: 56.2 µM [inhibitor, partial curve]
C=CCN(CC=C)CCOc1ccc(C)cc1[N+](=O)[O-] |  | inconclusive: 50.1 µM [inhibitor, partial curve]
O=C1C(=O)N(CCN2CCOCC2)C(c2ccncc2)/C1=C(/O)c1ccc2c(c1)OCO2 (stereo unspecified) |  | inconclusive: 70.8 µM [inhibitor, single point]
COc1ccc(NC(=O)C2CCN(c3ccc(Sc4ccc(C)cc4)nn3)CC2)cc1 | inactive: 3.2% | 
COc1cc(-c2nc(-c3ccccc3)c(-c3ccc(Br)cc3)[nH]2)cc(OC)c1O |  | inconclusive: 70.8 µM [inhibitor, partial curve, poor fit]
COc1ccc(Nc2cc(C)c3cc(NC(=O)COc4cccc(C)c4)ccc3n2)cc1 | inactive: 23.6% | 
O=C(CN1C(=O)c2ccccc2Sc2ncccc21)Nc1cccc(C(F)(F)F)c1 | inactive: 1.45% | 
Cc1ccc(/C=N\NC(=O)c2cncc(Br)c2)o1 | inactive: -13.7% | 
Cc1cc(C)c(Cn2cnc3nc4c(cc3c2=O)CCCC4)c(C)c1 | inactive: 21.8% [at 57.1 µM] | 
CC(C)NS(=O)(=O)c1ccc(NC(=S)NC(=O)c2cccc([N+](=O)[O-])c2)cc1 |  | inconclusive: 44.7 µM [inhibitor, partial curve]
Cc1nc2ccc3[nH]snc3c2n1 |  | inconclusive: 79.4 µM [inhibitor, partial curve, poor fit]
COc1cccc(CN2CCNC(=O)C2CC(=O)N(C)C2CCOCC2)c1OC (stereo unspecified) |  | inconclusive: 79.4 µM [inhibitor, single point]

Compound | activity change, negative = inhibition | Potency
CO[C@H]1O[C@@H]2O[C@@]3(C)CC[C@@H]4[C@@H](C)CC[C@@H]([C@H]1C)[C@@]24OO3 | inactive: -2.35% | 
O=C(O)CCc1ccc(-c2ccccc2)n1-c1cccc(C(=O)O)c1 |  | active: 44.7 µM
CCCCn1c(=O)c2ccccc2n2c(=S)[nH]nc12 |  | inconclusive: 1.58 µM [inhibitor, partial curve, poor fit]
NC(=O)c1c(NC(=O)CSc2nnc(-c3ccco3)n2N)sc2c1CCCC2 |  | inconclusive: 15.8 µM [inhibitor, partial curve]
CCCCN1C(=N)N([C@@H](CCC)CN2CCC[C@H]2CN2C(N)=NC[C@@H]2Cc2ccccc2)C[C@H]1[C@H](C)CC |  | inconclusive: 89.1 µM [inhibitor, partial curve, poor fit]
CN(C)CCNC(=O)c1ccc2c(=O)n(Cc3ccc(Cl)cc3)c(=S)[nH]c2c1 |  | inconclusive: 20 µM [inhibitor, single point]
Oc1oc(-c2cccc3ccccc23)nc1/C=N/c1nccs1 | inactive: -13.2% [at 57.1 µM] | 
COC(=O)c1cc(C)nc(Sc2ccccc2N)n1 | inactive: 34.1% | 
COc1ccc(C)c(NC(=O)NCCc2cnc[nH]2)c1 |  | inconclusive: 89.1 µM [inhibitor, partial curve, poor fit]
Cn1c(C(=O)NCc2ccccc2F)cc2cc(S(=O)(=O)N3CCCCC3)ccc21 | inactive: 29.1% [at 57.1 µM] | 
Cc1ccc(NC(=O)/C(=C\c2ccc([N+](=O)[O-])cc2)NC(=O)c2ccccc2)cc1 | inactive: 6.27% [at 57.1 µM] | 
COc1ccc(-n2cc(CNCCCN3CCCC3=O)c(-c3ccccc3Cl)n2)cc1 |  | inconclusive: 50.1 µM [inhibitor, partial curve, poor fit]
CCCCN(C(=O)CCn1c(=O)oc2ccccc21)c1ccccc1 |  | inconclusive: 44.7 µM [inhibitor, partial curve]
Cc1nc2ccccn2c1/C(O)=C1\C(=O)C(=O)N(CCCn2ccnc2)C1c1ccncc1 (stereo unspecified) |  | inconclusive: 70.8 µM [inhibitor, partial curve, poor fit]
COCCn1c(C)cc(O)c(C(c2ccccc2Cl)N2CCN(c3ccccc3)CC2)c1=O (stereo unspecified) |  | inconclusive: 3.55 µM [inhibitor, full curve, poor fit]
O=C(NCC(c1ccco1)S(=O)(=O)c1cccs1)c1c(F)cccc1F (stereo unspecified) |  | inconclusive: 12.6 µM [inhibitor, partial curve, poor fit]
COc1ccccc1OCC(=O)N/N=C/C=C/c1ccc([N+](=O)[O-])o1 |  | active: 7.08 µM
COc1ccc(/C=N/Nc2ccccn2)cc1OC | inactive: 10.5% | 
CCOc1ccc(C(c2c(O)cc(C)n(CCOC)c2=O)N2CCN(c3ccc(F)cc3)CC2)cc1 (stereo unspecified) |  | inconclusive: 28.2 µM [inhibitor, single point]
C=CCc1c(C)nc(-c2ccccc2)nc1N/N=C(\C)c1ccccc1 | inactive: 7.03% | 
Cc1ccccc1C1C(C#N)=C2N=C(N)c3c(sc4c3CCCCC4)N2C2=C1C(=O)CCC2 (stereo unspecified) |  | inconclusive: 14.1 µM [inhibitor, partial curve, poor fit]
CC1(C)CC(=O)C(C(c2ccccc2F)C2C(=O)CC(C)(C)CC2=O)C(=O)C1 |  | inconclusive: 39.8 µM [inhibitor, single point]

Compound | activity change, negative = inhibition | Potency
Cc1cc(=O)oc2cc3c(cc12)OCO3 |  | inconclusive: 89.1 µM [inhibitor, single point]
CCCC(=O)NC(=S)Nc1cccc2c(O)cccc12 |  | inconclusive: 31.6 µM [inhibitor, single point]
O=C(CCl)Nc1ccccc1Sc1ccccc1 |  | active: 39.8 µM
CCCC1=C/C(=C/c2ccc(-c3ccccc3OC)o2)C(=O)O1 |  | inconclusive: 79.4 µM [inhibitor, single point]
O=C(c1nc2ccc(Cl)cn2c1CN1CCCC1)N1CCc2ccccc2C1 |  | inconclusive: 56.2 µM [inhibitor, partial curve, poor fit]
CCOCCCNCC(=O)Nc1ccc(OC(F)(F)F)cc1 |  | inconclusive: 10 µM [inhibitor, partial curve]
Cc1ccccc1CN1C(=O)C(C)S/C1=N/N=C/c1ccco1 (stereo unspecified) |  | inconclusive: 56.2 µM [inhibitor, partial curve, poor fit]
CCN(CC)C(=O)[C@H]1C[C@H](CC(=O)NCc2ccc(OC)c(OC)c2)C(=O)N2CCc3c([nH]c4cc(-c5ccco5)ccc34)[C@]12C |  | inconclusive: 3.98 µM [inhibitor, full curve, poor fit]
Cc1ccccc1C(=O)Nc1cccc(NC(=O)c2ccc(F)cc2)c1 | inactive: 9.16% | 
C=CCOc1ccccc1C(=O)/C=C1/C(=O)Nc2ccccc21 |  | inconclusive: 39.8 µM [inhibitor, partial curve]
COc1ccc(Br)cc1/C=c1\sc2nc(-c3ccco3)nn2c1=O |  | inconclusive: 14.1 µM [inhibitor, partial curve, poor fit]
CCOC(=O)CSC1=N/C(=C\c2ccc(OC)c(OC)c2)C(=O)N1C |  | inconclusive: 89.1 µM [inhibitor, single point]
Cc1ccc(S(=O)(=O)N2CCN(c3nc(-n4cncn4)nc4ccccc34)CC2)cc1 | inactive: 15.4% | 
CCOc1ncccc1C(=O)Nc1ccc(C(=O)Nc2ccc(OC)cc2)cc1 | inactive: 24.7% | 
CC(=NNC(=S)N1CCN(C2CCCCCC2)CC1)c1ccccn1 |  | inconclusive: 3.16 µM [inhibitor, single point]
CCOC(=O)N/N=C\c1ccc([N+](=O)[O-])o1 |  | active: 7.08 µM
Cc1cccc(-c2nc3c4ccccc4n(CC(=O)Nc4cccc(F)c4)c(=O)n3n2)c1 | inactive: 25.4% [at 57.1 µM] | 
N.N.N.N.N.N.N.N.N.N.N.N.N.N.O.O.[Cl-].[Cl-].[Cl-].[Cl-].[Cl-].[Cl-].[Ru].[Ru].[Ru] |  | inconclusive: 50.1 µM [inhibitor, partial curve]
CC1Cc2nc(SCC(=O)NCc3ccco3)n(-c3ccccc3)c(=O)c2S1 (stereo unspecified) |  | inconclusive: 20 µM [inhibitor, partial curve, poor fit]
Clc1cccc(CSc2ncnc3c2ncn3C2CCCCO2)c1 (stereo unspecified) |  | inconclusive: 89.1 µM [inhibitor, single point]
O=C(O)CCn1cc(/C=C/C(=O)c2ccc(Cl)cc2)c(-c2cccc(Br)c2)n1 |  | inconclusive: 70.8 µM [inhibitor, single point]
Cc1ccc(Cc2cnc(N3C(=N)SC(c4ccccc4)C3=O)s2)cc1 (stereo unspecified) |  | inconclusive: 50.1 µM [inhibitor, partial curve, poor fit]
